Data reported in PubChem BioAssay AID488969 (Vanderbilt High Throughput Screening Facility, 2010).
The full ranking holds about 110,000 compounds; the median of “z-score” is about -0.1, and the highest 2% start at about 2. This is one part of the list.

biological target: Metabotropic glutamate receptor 8 (Rattus norvegicus) (UniProt P70579); experiment: rat mGluR8 modulators via GIRK flux, primary screen, cell-based, thallium flux, HTS (AID 488969); conditions: HEK293 rat mGluR8, GIRK (G protein-gated inwardly rectifying potassium channel) thallium flux, FluoZin2; at 10 µM; stronger effect = higher value; submaximal glutamate (EC20) added with thallium
UniProt P70579, sequence (P70579 whole entry, looked up): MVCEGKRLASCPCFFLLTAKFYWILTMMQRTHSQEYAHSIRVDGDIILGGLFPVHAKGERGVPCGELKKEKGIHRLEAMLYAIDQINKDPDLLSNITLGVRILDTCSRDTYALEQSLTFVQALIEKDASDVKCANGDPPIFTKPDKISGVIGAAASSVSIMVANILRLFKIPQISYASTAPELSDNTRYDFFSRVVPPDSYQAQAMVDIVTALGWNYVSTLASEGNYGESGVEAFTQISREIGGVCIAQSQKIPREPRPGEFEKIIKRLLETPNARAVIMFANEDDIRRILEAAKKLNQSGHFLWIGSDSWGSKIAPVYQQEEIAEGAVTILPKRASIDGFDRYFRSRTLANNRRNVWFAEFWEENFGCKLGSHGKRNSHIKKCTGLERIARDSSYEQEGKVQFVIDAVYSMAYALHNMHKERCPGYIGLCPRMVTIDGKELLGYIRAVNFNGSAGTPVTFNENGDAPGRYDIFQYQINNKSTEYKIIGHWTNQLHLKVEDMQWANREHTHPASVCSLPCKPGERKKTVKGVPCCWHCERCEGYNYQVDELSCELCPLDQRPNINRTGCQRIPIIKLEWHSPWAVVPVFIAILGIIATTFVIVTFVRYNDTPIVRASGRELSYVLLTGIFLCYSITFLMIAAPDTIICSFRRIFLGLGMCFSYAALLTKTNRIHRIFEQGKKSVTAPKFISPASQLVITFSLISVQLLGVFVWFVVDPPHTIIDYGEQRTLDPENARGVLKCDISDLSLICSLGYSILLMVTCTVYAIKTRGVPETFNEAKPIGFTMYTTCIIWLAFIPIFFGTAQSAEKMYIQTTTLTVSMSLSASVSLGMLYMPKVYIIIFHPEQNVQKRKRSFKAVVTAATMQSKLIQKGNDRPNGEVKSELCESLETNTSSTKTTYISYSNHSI

| Structure (SMILES) | z-score |
| --- | --- |
| CCOCCCNC(=O)CN1C(=O)CSc2cc(S(=O)(=O)N3CCCCCC3)ccc21 | -0.263 |
| C=CCOc1cccc(C2C(C(=O)c3ccco3)=C(O)C(=O)N2CCN(CC)CC)c1 (centres undefined) | -0.0982 |
| CN(Cc1ccccc1)Cc1nc2c([nH]1)c(=O)[nH]c(=O)n2C | 0.288 |
| Cc1nn(-c2nc(-c3ccco3)cc(C(F)(F)F)n2)c(C)c1Br | -0.316 |
| COc1cc(/C=C2\SC(=S)N(Nc3ccccc3)C2=O)ccc1O | 0.0927 |
| O=C(Nc1ccc2c(c1)C(=O)N(CC1CCCO1)C2=O)c1ccccc1Br (centres undefined) | 0.102 |
| COc1ccc(OC)c(Nc2nc(-c3sc(NC(=O)CC(C)C)nc3C)cs2)c1 | -0.309 |
| Cc1noc(/C=C/c2ccc(-c3ccccc3Cl)o2)c1[N+](=O)[O-] | -0.239 |
| Cc1ccc2c(c1)NC(=O)C(CC(=O)NCCCN1CCCC1=O)O2 (centres undefined) | -1.38 |
| COc1ccc(-c2nc(C#N)c(N3CCCCCC3)o2)cc1 | -0.424 |
| COc1ccc(CNc2nc(SC)n[nH]2)cc1OC | -1.24 |
| Cc1c(Cl)ccc2c1NC(=O)[C@]21[C@@H]2C(=O)N(Cc3ccccc3)C(=O)[C@@H]2[C@@H]2CCCN21 | 1.19 |
| CC(=O)Nc1ccc(S(=O)(=O)N2CCN(C(=O)Cc3ccccc3)CC2)cc1 | 0.571 |
| COc1ccc(-c2nnc(SCC(=O)c3cccs3)o2)c(OC)c1 | 0.000783 |
| CCOC(=O)C1CCCN(c2c(NCCCN(C)c3ccccc3)c(=O)c2=O)C1 (centres undefined) | -0.542 |
| S=C(NCc1ccco1)Nc1ccc(Cl)cc1Cl | 0.725 |
| c1ccc2c(C[n+]3csc4ccccc43)cccc2c1 | 0.923 |
| COc1ccc(NC(=O)CN(C)S(=O)(=O)c2ccccc2)c([N+](=O)[O-])c1 | -0.198 |
| CNC(=O)Cn1nc(C)c2ccccc2c1=O | 0.0979 |
| O=C(NNC1=NCCCCC1)c1ccccc1 | -0.78 |
| CCN(CC)c1ccc(/C=N/NS(=O)(=O)c2ccc(CNC(C)=O)cc2)cc1 | -0.119 |
| CCn1cc(C(=O)N[C@H](C)c2ccccc2)c(=O)c2cc(F)c(N3CCN(C)CC3)cc21 | -0.24 |
| CCC(C)Nc1nc(SC(C(C)=O)C(C)=O)nc(N(C)C)n1 (centres undefined) | 0.136 |
| O=C(Nc1cc(C(F)(F)F)ccc1N1CCCCC1)c1ccc(Br)o1 | -0.139 |
| COc1ccc2[nH]c(=O)c(CN(Cc3ccco3)Cc3nnnn3Cc3ccccc3)cc2c1 | -0.688 |
| COc1ccc(OC)c(C2=Nn3c(nnc3-c3cc(OC)c(OC)c(OC)c3)SC2)c1 | -0.884 |
| O=C(NCCCNCc1ccccc1)c1ccc(/C=N/O)nc1 | 0.298 |

| Structure (SMILES) | z-score |
| --- | --- |
| COc1ccc(N/C=C/C(=O)c2sc(-c3ccccc3)nc2C)cc1 | -0.0681 |
| O=C(NNC(=S)NC(=O)c1cccnc1)c1ccccc1 | 0.252 |
| N#CC1=C(N)Oc2n[nH]c(-c3cccs3)c2C1c1cccs1 (centres undefined) | -1.91 |
| N/C(=N\OC(=O)Cc1ccccc1)c1ccccn1 | -0.0784 |
| CCOC(=O)c1c(-c2ccc(OC)cc2)csc1NC(=O)CNCc1ccco1 | -0.118 |
| CC(C)OC(=O)c1cn(-c2ccccc2)nc1-c1ccc2c(c1)OCCO2 | -0.0562 |
| Cc1ccc(S(=O)(=O)NC(C)C(=O)NC2CCCCCC2)cc1 (centres undefined) | -0.00974 |
| CCN(Cc1ccccc1)C(=O)c1cc2c(=O)oc3ccc(C)cc3c2s1 | -0.184 |
| O=C(Oc1ccccc1-c1nnco1)c1ccccc1 | 0.732 |
| O=C(NCc1cccnc1)c1ccc(CS(=O)(=O)c2ccc(Br)cc2)o1 | -0.146 |
| CC(C)c1ccc(N2CCN(C(=O)c3ccccc3NC(=O)/C=C\C(=O)O)CC2)cc1 | 0.705 |
| COC(=O)/C(NC(C)=O)=C(\C)c1ccc(Cl)cc1 | 0.442 |
| CCOc1ccc(-c2cc(CCCC(=O)NCc3ccc(C)cc3)no2)cc1 | 0.969 |
| CC(C)C(NC(=O)C1CCCCC1)C(=O)N1CCN(c2ccc(F)cc2)CC1 (centres undefined) | -0.304 |
| CCN(CC)Cc1c(O)ccc2c(C)c(CC(=O)OC)c(=O)oc12 | 0.0516 |
| CCC(C)(C(=O)NC1CCCC1)N(Cc1ccco1)C(=O)Cc1cccs1 (centres undefined) | 0.0511 |
| Cn1c(=O)n(C)c2cc(CNc3ccc(N4CCOCC4)c(C(=O)O)c3)ccc21 | 0.0129 |
| O=C(COc1ccc([N+](=O)[O-])cc1)NCc1ccccc1 | -0.000174 |
| N#Cc1nc(COc2cccc(Cl)c2)oc1N1CCCC1 | -0.382 |
| CCOc1ccc(N(Cc2cc3cc(OC)ccc3[nH]c2=O)C(=O)C2CCCO2)cc1 (centres undefined) | 0.195 |
| CC1(C)Cc2c(C#N)c(NCC3CCCO3)nc(-c3ccco3)c2CO1 (centres undefined) | -1.48 |
| CCOC(=O)C1=C(C)OC(N)=C(C#N)C1c1ccc(C)o1 (centres undefined) | -0.127 |
| Cc1ccc(OCCNS(=O)(=O)c2ccc(N3CCCC3=O)cc2)cc1C | -0.0565 |
| CS(=O)(=O)N(Cc1ccc(Cl)cc1)c1ccc(C(=O)N/N=C/c2cc3ccccc3nc2Cl)cc1 | 0.209 |
| CCCC1C(c2ccc(OC)cc2)C(C#N)(C#N)C2(C#N)CC1(N)NC2=O (centres undefined) | -1.46 |
| O=C(Nc1ccccc1)N(Cc1ccccc1)CC(O)C(F)(F)F (centres undefined) | 0.128 |
| COC(=O)c1ccccc1OCCCCN1CC(C)OC(C)C1 (centres undefined) | -0.352 |
